Results: paper PMC4336329 (PLoS ONE, 2015)
Hit rate of the full screen: of about 310,000 compounds, about 2,200 (0.71%) showed an effect of 50% or more. Effects have a minus sign here. This is one part of the list.

Biological target: human ether-à-go-go-related gene (hERG) potassium channel (human, UniProt Q12809)
Test: primary screen, population patch clamp on CHO cells stably expressing hERG

Chain of human ether-à-go-go-related gene (hERG) potassium channel (Q12809 whole entry, looked up): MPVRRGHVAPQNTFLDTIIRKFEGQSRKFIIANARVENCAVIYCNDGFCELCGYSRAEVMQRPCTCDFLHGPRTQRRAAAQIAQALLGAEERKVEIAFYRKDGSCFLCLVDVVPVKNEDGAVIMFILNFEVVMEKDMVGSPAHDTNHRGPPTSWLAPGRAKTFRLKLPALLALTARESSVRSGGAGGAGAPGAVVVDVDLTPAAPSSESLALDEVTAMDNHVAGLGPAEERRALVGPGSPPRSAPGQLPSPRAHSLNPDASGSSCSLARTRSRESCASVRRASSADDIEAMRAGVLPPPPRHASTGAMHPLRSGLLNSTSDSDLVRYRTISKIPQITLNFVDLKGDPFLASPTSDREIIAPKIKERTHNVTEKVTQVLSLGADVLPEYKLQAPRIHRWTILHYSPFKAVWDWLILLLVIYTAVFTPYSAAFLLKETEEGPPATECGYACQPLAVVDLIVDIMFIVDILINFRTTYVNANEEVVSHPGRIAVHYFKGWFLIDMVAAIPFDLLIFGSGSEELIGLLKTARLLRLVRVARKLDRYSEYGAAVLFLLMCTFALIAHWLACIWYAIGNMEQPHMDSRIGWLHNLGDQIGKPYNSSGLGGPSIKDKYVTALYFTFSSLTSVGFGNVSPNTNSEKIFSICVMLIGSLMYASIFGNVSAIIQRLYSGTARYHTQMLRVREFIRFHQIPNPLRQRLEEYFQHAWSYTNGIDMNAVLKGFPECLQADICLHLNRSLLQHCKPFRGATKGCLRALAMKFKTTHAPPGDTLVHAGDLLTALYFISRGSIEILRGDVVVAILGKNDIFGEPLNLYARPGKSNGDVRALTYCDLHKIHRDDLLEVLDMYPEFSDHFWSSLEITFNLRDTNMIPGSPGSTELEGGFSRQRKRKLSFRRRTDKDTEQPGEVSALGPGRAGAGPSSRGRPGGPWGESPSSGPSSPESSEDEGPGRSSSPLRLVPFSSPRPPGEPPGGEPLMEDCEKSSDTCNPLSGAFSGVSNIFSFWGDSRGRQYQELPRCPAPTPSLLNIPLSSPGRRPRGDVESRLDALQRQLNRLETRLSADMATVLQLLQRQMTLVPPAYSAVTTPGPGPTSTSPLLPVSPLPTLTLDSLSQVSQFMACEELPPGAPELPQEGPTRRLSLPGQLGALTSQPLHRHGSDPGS

Compound	hERG current change (%, negative = inhibition) at 1uM
Cc1ccccc1-c1nnn(CC(=O)Nc2ccc3c(c2)OCO3)n1	5.93%
Fc1c(F)c(-n2nnc3ccccc32)c(F)c(F)c1Cl	13.1%
Oc1ccc(-c2n[nH]c(=S)n2-c2ccc3c(c2)OCCO3)c(O)c1	14.4%
O=C(CSc1nnc2scc(-c3ccccc3)n12)N1CCN(Cc2ccccc2)CC1	-8.18%
CCOC(=O)Cn1c(=O)c2c(nc(N3CCCCC3)n2C)n(C)c1=O	-4.7%
Cc1ccc(S(=O)(=O)NP(=O)(Oc2ccccc2)Oc2ccccc2)cc1	0.88%
Cc1ccc(N(C)C(=O)C2CCCN2S(=O)(=O)c2ccc3c(c2)n(C)c(=O)c(=O)n3C)cc1 (centres unmarked)	9.6%
COc1ccc(C2=NOC(C(=O)N3CCN(C(=O)c4ccco4)CC3)C2)cc1OC (centres unmarked)	15.8%
CC(=O)c1cccc(NC(=O)CN(c2ccc(F)cc2)S(C)(=O)=O)c1	-0.131%
COc1ccc(NC(=O)NNC(=O)C(C)Oc2ccc(C(C)C)cc2)c(OC)c1 (centres unmarked)	10.2%
CCOC(=O)c1c(C)nc(C)c(C(=O)OCC)c1-c1ccco1	15.5%
COc1ccc(C2C(C(=O)O)c3ccccc3C(=O)N2C)cc1Br (centres unmarked)	2.28%
CCNC(=S)N1CCc2cc(OC)c(OC)cc2C1COc1ccc(OC)cc1 (centres unmarked)	6.71%
Cc1cc(C)nc(Sc2ncnc3c2oc2ccccc23)n1	2.21%
CC(C)(C)c1cc[n+](/C(C(=S)Nc2ccccc2F)=C(/[O-])c2ccc3c(c2)OCCO3)cc1	14.6%
Cc1ccc(NC(=O)CC2S/C(=N/N=C/c3ccco3)NC2=O)cc1Cl (centres unmarked)	3.42%
Cc1[nH]c(C)c(S(=O)(=O)N(C)Cc2ccccc2)c1C(=O)N1CCCCC1	-3.71%
CCOc1ccc(/C(O)=C2/C(=O)C(=O)N(c3cc(C)on3)C2c2ccc(C(=O)OC)cc2)cc1 (centres unmarked)	5.95%
C=CCNC(=O)c1ccc(OC2CCN(S(=O)(=O)N(C)C)CC2)cc1	5.26%
CC1CCC(NC(=O)c2cc(C3CC3)nn2-c2ccccc2)CC1 (centres unmarked)	1.19%
CNc1nc(N(C)C)nc(N(C)C)n1	9.51%
O=C1CS/C(=N/N=C/c2ccncc2)N1	11.1%
CCN1CCSc2ccc(C(=O)Nc3ccc(NC(C)=O)cc3)cc21	7.24%

Compound	hERG current change (%, negative = inhibition) at 1uM
CC(=O)c1ccc(Oc2cc(-c3ccccc3)nc(-c3ccccc3)n2)cc1	6.12%
COc1ccc(/C=C/C(=O)c2ccc(Cl)cc2)c(OC)c1	3.88%
CCOc1cc(CNCC(C)C)c(Cl)cc1OCC(=O)Nc1ccccc1	8.53%
COC(=O)c1ccccc1NC(=O)N1CCCC1	0.671%
COc1ccccc1Oc1nc(-c2cccnc2)nc2ccccc12	9.35%
Cc1c(NC(=O)CN2CCN(c3ccccc3)CC2)c(=O)n(-c2ccccc2)n1C	8.26%
O=C(O)C1CCN(C(=O)c2scc3c2OCCO3)CC1	6.85%
Cc1ccccc1OCCC(=O)OCC(=O)NNC(=O)c1cccs1	5.06%
Cc1ncc(CN2CCN(Cc3ccccc3)C(CCO)C2)s1 (centres unmarked)	6.04%
CCn1cc(C(=O)OCC(=O)N2C(C)CCCC2C)c(=O)c2ccc(C)nc21 (centres unmarked)	11.6%
CCOc1ccc(NC(=O)CN(C)C(=O)c2cc(S(=O)(=O)N3CCCCC3)ccc2C)cc1OCC	4.44%
COc1ccc(Cn2c(C)ccc2C)cc1	11%
O=C(Nc1ccc(NC(=O)c2cccs2)cc1)c1cccs1	-6.9%
COc1ccc(CCNc2ncnc3c2nnn3Cc2ccccc2)cc1	14.7%
Cc1nn(-c2ccccc2)c2sc(C(=O)O)cc12	-2.65%
CC1(C)Cc2cccc(OCC(=O)NCc3ccccc3)c2O1	11.9%
Cn1cc(Br)c(C(=O)NNC(=O)Nc2ccccc2C(F)(F)F)n1	12.1%
NC(=O)c1ccccc1Nc1nc2nc3ccccc3c(=O)n2cc1Br	1.56%
CCOc1cc(/C=C2\C(=N)N3N=C(N4CCCCC4)SC3=NC2=O)ccc1OC(=O)c1ccco1	16.6%
CCCCCC(=O)Nc1ccc2oc(-c3cncc(Br)c3)nc2c1	18.1%
COc1cccc(CN2CCNC(=O)C2CC(=O)NCCOc2cccnc2)c1OC (centres unmarked)	12.9%
Cc1ccccc1NC(=O)c1cc2ccccn2n1	0.459%
COc1ccc(S(=O)(=O)N2c3ccccc3OCC2C)cc1 (centres unmarked)	18%

Compound	hERG current change (%, negative = inhibition) at 1uM
Cc1cc(NC(=O)CSc2nc3ccccc3[nH]2)no1	17.2%
[Cl-].c1ccc(CNc2cccc[nH+]2)cc1	14.1%
COCCNC(=S)Nc1ccc(Cl)c(Cl)c1	1.58%
Cn1nnnc1SCC(=O)Nc1nc(-c2ccc(F)c(F)c2)cs1	12.9%
COc1ccccc1N(C)S(=O)(=O)c1ccc(C(=O)N(CC(N)=O)C(C)C)cc1	10.2%
CCCCOc1ccc(S(=O)(=O)NCc2csc(C)n2)cc1	4.14%
Cc1ccc(NC(=O)c2oc3ccccc3c2C)nc1	9.66%
COCCCNC(=O)c1c(N)n(-c2ccccc2)c2nc3ccccc3nc12	10.1%
COc1ccc(N2CCN(c3nc(Nc4ccc(C)c(F)c4)nc(N4CCCC4)n3)CC2)cc1	5.24%
CCOC(=O)c1c(-c2ccccc2)nc2cc(C)ccn12	3.7%
COc1ccc(-c2cc(C(=O)NCc3cn(C)nc3C)c3ccccc3n2)cc1OC	14.3%
Cn1cc(Br)c(NC(=O)/C=C/C(=O)O)n1	2.68%
FC(F)Sc1ccc(-n2cc(-c3ccccc3)[n+]3c2CCC3)cc1.[Br-]	-25.9%
Cc1nc(Nc2ccc(C(=O)O)cc2)sc1-c1ccccc1	-3.34%
Clc1cccc2sc(N3CCOCC3)nc12	8.82%
CCOC(=O)CSC1=NC(=O)/C(=C\c2ccc(Cl)cc2)S1	5.04%
Cc1ccccc1S(=O)c1ccccc1C(=O)O (centres unmarked)	5.25%
Cc1ccc(/C=C/C(=O)O)cc1S(=O)(=O)Nc1ccc2c(c1)OCO2	13.4%
Cc1sc2nc(CSCC(=O)Nc3c(Cl)cccc3Cl)[nH]c(=O)c2c1C	11.4%
CC(Oc1ccc2c(-c3ccccc3)cc(=O)oc2c1)C(=O)NCCCN1CCOCC1 (centres unmarked)	-2.36%
Cc1ccc(-c2nnn(CC(=O)N(CC(=O)NC3CCCC3)c3cnc4ccccc4c3)n2)o1	2.75%
S=C(NCc1ccc2c(c1)OCO2)NC1CC1	-4.91%
CC(=O)CCC(=O)N1CCCC(CNC(=O)c2ccc(-c3ccccc3)cc2)C1 (centres unmarked)	4.72%

Compound	hERG current change (%, negative = inhibition) at 1uM
Cc1cc2ccccc2nc1SCC(=O)Nc1nc(-c2ccccc2)cs1	7.4%
COC(=O)c1c(NC(=O)CN2C(=O)C(=O)N(CC(C)C)C2=O)sc(C)c1C	9.77%
C=CCn1c(SCC(=O)Nc2cc(C)nn2-c2ccccc2)nnc1C1CCCCC1	6.74%
O=C(CCN1C(=O)C2CCCCC2C1=O)N1CCN(S(=O)(=O)c2c(F)cccc2F)CC1 (centres unmarked)	-13.5%
Fc1c(F)c(C(F)(F)F)c(F)c(F)c1N1CCN(c2ccc3nnc(C(F)(F)F)n3n2)CC1	11.6%
CCCCc1cc(=O)oc2c(C)c(OCC(=O)N3C[C@H]4C[C@@H](C3)c3cccc(=O)n3C4)ccc12	-45.1%
CC(=O)c1ccc(Nc2cc(C)nc3ccccc23)cc1	-1.11%
CCOC(=O)N1CCN(C(=O)CSc2nnc(Cn3c(=O)sc4ccccc43)n2C)CC1	9.65%
Cn1nc(CC(=O)Nc2ncc(Br)s2)c2ccccc2c1=O	15.3%
Cc1ccc(S(=O)(=O)/N=C(/c2ccccc2)N2CCOCC2)c(C)c1	12.3%
COCCNc1nc2c(c(=O)n(C)c(=O)n2C)n1Cc1cccc(C)c1	6.98%
CCOC(=O)c1cc(NC(=O)c2cccnc2)ccc1N1CCOCC1	6.57%
N#Cc1c(/N=C/c2ccc(O)cc2O)sc2c1C1CCN2CC1	4.04%
COc1ccccc1C1(O)C(=O)Nc2ccccc21 (centres unmarked)	18.3%
CCS(=O)(=O)NCCc1ccc(OC)c(OC)c1	5.84%
O=C(Nc1cccc(C(=O)Nc2ccc(Cl)cn2)c1)c1ccccc1	12.4%
O=C(NC1CC1)c1nc(Cn2ccc([N+](=O)[O-])n2)no1	10.5%
C[N+]1(CC(=O)Nc2ccccc2Cl)CCN(C(=O)c2cccs2)CC1.[Cl-]	7.95%
N#CC1(Cc2ccc(Cl)cc2)c2ccccc2C=CN1C(=O)c1ccccc1 (centres unmarked)	-1.53%
O=C(Nc1ccc(Cl)cc1[N+](=O)[O-])c1ccc2c(c1)OCCO2	-12.4%
